In patent US20210087281A1 (AGOMAB THERAPEUTICS, published 2021):

Columns and labels:
Assay in all cases: cell-based or functional assay
[1] = molecular target: T1, native human MET on living cells (human, UniProt P08581)
[2] = molecular target: T1, native human MET on living cells; remark: listed apart in the source
[3] = molecular target: T1, native human MET on living cells; remark: listed apart in the source
[4] = molecular target: T1, native human MET on living cells; remark: listed apart in the source

T1 sequence (P08581 25-1390): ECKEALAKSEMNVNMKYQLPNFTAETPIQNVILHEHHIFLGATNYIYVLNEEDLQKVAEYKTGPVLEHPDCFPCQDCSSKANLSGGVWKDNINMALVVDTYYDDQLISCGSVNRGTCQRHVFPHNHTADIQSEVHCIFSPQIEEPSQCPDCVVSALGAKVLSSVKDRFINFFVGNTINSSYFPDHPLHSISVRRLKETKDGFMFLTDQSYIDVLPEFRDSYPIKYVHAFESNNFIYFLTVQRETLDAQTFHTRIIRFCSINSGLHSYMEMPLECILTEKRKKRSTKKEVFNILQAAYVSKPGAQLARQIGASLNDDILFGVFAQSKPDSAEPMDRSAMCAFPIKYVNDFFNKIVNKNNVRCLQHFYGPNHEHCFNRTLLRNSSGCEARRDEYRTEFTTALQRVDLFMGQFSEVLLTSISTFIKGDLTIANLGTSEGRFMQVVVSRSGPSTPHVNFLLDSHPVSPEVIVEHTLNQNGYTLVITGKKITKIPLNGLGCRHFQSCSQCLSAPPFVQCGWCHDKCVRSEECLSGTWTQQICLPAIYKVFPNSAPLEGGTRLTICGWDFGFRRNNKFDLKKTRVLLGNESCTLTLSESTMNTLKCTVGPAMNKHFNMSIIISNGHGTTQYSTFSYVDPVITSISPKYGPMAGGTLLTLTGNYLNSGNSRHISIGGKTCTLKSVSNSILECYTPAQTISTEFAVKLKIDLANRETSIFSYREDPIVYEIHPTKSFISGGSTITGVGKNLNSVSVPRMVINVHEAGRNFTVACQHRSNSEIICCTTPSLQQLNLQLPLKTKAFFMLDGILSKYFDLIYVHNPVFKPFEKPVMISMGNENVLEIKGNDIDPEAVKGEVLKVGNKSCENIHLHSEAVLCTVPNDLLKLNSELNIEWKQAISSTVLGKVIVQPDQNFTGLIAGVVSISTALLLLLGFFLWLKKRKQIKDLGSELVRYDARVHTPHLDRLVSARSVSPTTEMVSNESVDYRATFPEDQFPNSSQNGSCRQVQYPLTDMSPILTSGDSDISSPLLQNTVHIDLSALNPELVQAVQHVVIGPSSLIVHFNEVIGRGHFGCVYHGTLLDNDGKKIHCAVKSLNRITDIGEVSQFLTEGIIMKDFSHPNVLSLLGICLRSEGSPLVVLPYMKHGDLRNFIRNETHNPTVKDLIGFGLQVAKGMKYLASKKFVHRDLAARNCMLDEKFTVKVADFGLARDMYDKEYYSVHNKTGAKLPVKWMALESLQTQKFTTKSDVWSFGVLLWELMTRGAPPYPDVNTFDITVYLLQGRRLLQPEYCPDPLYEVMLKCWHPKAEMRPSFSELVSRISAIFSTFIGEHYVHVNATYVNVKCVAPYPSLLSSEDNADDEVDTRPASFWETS

B1: recombinant human HGF (R&D Systems) (ligand)
chain: not shown
modifications: biotinylated at the N-terminus using NHS-LC-biotin (in the competition ELISAs only)
- branches per spheroid, LOC cells, 2.5 nM [1]: 27.7 branches
- branches per spheroid, LOC cells, 12.5 nM [1]: 20.3 branches
- protection from staurosporine, viability EC50, MCF10A cells [2]: 4.57 nM
- protection from staurosporine, viability EMAX, MCF10A cells [2]: 59.3%
- phospho-MET ELISA EC50, A549 cells [3]: 0.19 nM
- phospho-MET ELISA EMAX (% HGF activity), A549 cells [3]: 100%
- scatter score 0-4, HPAF-II, 0.001 nM [4]: 0 score
- scatter score 0-4, HPAF-II, 0.004 nM [4]: 1 score
- scatter score 0-4, HPAF-II, 0.012 nM [4]: 2 score
- scatter score 0-4, HPAF-II, 0.037 nM [4]: 3 score
- scatter score 0-4, HPAF-II, 0.111 nM [4]: 4 score
- scatter score 0-4, HPAF-II, 0.333 nM [4]: 4 score
- scatter score 0-4, HPAF-II, 1.000 nM [4]: 4 score
- scatter score 0-4, HPAF-II, 3.000 nM [4]: 4 score
- scatter score 0-4, HPAF-II, 9.000 nM [4]: 4 score
